The source of these data is article PMC5800818 (2018).

B1: Numb-PTBi (Numb^[…]), purified [human] / rhodamine-labeled Mdm2^[…] [modified: rhodamine label (site not stated); rhodamine label (site not stated)] [human] (parent complex)
chain 1: SRPHQWQTDEEGVRTGKCSFPVKYLGHVEVDESRGMHICEDAVKRLKAERKFFKGFFGKTGKKAVKAVLWVSADGLRVVDEKTKDLIVDQTIEKVSFCAPDRNFDRAFSYICRDGTTRRWICHCFMAVKDTGERLSHAVGCAFAACLERKQKREKE
chain 2: not shown

In one assay the parent is B1. Nature of the assay: fluorescence polarisation (FP); n = 6. For orientation: In fluorescence polarisation assays a small probe gives low polarisation when free and higher when bound to something large.
As to chain 1 F52A, chain 1 F53A, the Kd (in general, the equilibrium constant for the complex coming apart) came to 29 µM.

Turning to chain 1 K62A, chain 1 K63A, the Kd worked out at 37.5 µM.

On to chain 1 G55A, chain 1 G58A, for which the equilibrium dissociation constant (Kd) was 4.5 µM.

As for chain 1 F52A, chain 1 F53A, chain 1 F56A, chain 1 F57A, the Kd worked out at 60.6 µM.

With chain 1 F56A, chain 1 F57A, the Kd turned out to be 43.5 µM.

Turning to chain 1 R50E, chain 1 K51E, chain 1 K54E, chain 1 K59E, the Kd came out at 224 µM.

The variants in a further assay derive from B1. Nature of the assay: fluorescence polarisation (FP); n = 4.
As for chain 1 F143V, the dissociation constant (Kd) worked out at 4.2 µM.
